{
  "source": "PubChem BioAssay AID2675",
  "about": "(National Center for Advancing Translational Sciences (NCATS), 2010)",
  "note": "Where “and” joins values, the source holds several entries; their conditions need not be identical. Equal values may be shown once. Out of some 280,000 compounds screened, about 100 (0.036%) were called active. Inconclusive means that the source gave no clear call. Such entries were picked first, then a sample of the others. The call rests on the fitted dose curve; in most records, active means well fitted inhibition curve with a large enough effect in the signal ratio, with a control signal flat (not every such curve was filed as active); inconclusive means small, poorly fitted or top-dose-only effect, or effect the other way, or a change in a side signal; inactive means no such curve, though single readings can be large or run the other way; the % refers to the signal ratio. A potency beside an inconclusive call is a rough fit, not a confirmed value. A note “side channel” means that the fit belongs to a control or component signal, not to the main read-out. Potency means the concentration at half of the fitted maximal effect; tags describe the fitted curve by direction and shape or compound fluorescence and quenching.",
  "data": [
    {"biological_target": "Muscleblind-like protein 1 (Homo sapiens) (UniProt Q9NR56)", "sequence (Q9NR56 whole entry, looked up)": "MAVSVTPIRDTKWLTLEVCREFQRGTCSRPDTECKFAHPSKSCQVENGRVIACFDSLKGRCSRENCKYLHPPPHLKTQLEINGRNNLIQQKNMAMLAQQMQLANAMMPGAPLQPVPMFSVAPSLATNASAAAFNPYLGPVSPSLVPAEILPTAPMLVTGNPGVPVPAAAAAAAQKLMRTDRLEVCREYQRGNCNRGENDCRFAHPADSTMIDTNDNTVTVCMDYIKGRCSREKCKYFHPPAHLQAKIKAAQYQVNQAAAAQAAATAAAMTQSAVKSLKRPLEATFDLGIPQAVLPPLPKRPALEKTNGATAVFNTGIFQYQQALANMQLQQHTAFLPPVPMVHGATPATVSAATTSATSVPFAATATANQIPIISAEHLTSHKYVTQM", "test": "qHTS Assay for Inhibitors of MBNL1-poly(CUG) RNA binding", "conditions": "TR-FRET MBNL1-His/biotin-(CUG)12 binding, 665/545 ratio; series mostly up to 57.5 µM", "summary_of_the_method": "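TR-FRET between His-tagged MBNL1 and biotin-(CUG)12 RNA, detected with Tb anti-His antibody (0.055 ng/ul) and streptavidin-XL665 (5 nM), 60 min at room temperature. Compounds titrated 92 nM to 58 uM; 665/545 nm ratio normalized to buffer and complex controls.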", "values": [
      {"smiles": "O=c1c2ccccc2nc2ccc(NCc3ccco3)nn12", "Potency": "inconclusive: 15.8 µM [quencher, side channel, partial curve]"},
      {"smiles": "Cc1ccc(-n2c(O)c(C=Nc3ccccc3-c3n[nH]c(=S)[nH]c3=O)c3ccccc3c2=O)c(C)c1", "Potency": "inconclusive: 31.6 µM [quencher, side channel, single point]"},
      {"smiles": "O=S(=O)(c1cccc2nonc12)N1CCN(c2ccc(F)cc2)CC1", "Potency": "inconclusive: 3.55 µM [fluorescent, side channel, single point]"},
      {"smiles": "Cc1nnc2sc(-c3cccc4ccccc34)nn12", "Potency": "inconclusive: 31.6 µM [quencher, single point]"},
      {"smiles": "O=C(NC(=S)Nc1ccccc1[N+](=O)[O-])c1ccccc1", "Potency": "inconclusive: 15.8 µM [quencher, side channel, partial curve]"},
      {"smiles": "Cc1ccc(C(=O)C[n+]2ccc3ccccc3c2)cc1", "Potency": "inconclusive: 15.8 µM [quencher, side channel, partial curve]"},
      {"smiles": "O=[N+]([O-])c1cc(-c2ccc(C(=S)N3CCOCC3)o2)ccc1Cl", "Potency": "inconclusive: 25.1 µM [quencher, side channel, single point]"},
      {"smiles": "O=C(C[n+]1ccc(Cc2ccccc2)cc1)Nc1ccc([N+](=O)[O-])cc1Cl", "Potency": "inconclusive: 12.6 µM [quencher, side channel, partial curve]"},
      {"smiles": "COC(=O)c1ccc(OCCN2C3=NCCN3c3ccccc32)cc1", "Potency": "inconclusive: 1 µM [fluorescent, side channel, full curve, poor fit]"},
      {"smiles": "CCS(CC)=NS(=O)(=O)c1ccc(NC(C)=O)cc1", "Potency": "inactive"},
      {"smiles": "Cc1nn(C)c(C(=O)Nc2ccc(Br)cc2F)c1Br", "Potency": "inconclusive: 1.12 µM [fluorescent, side channel, full curve]"},
      {"smiles": "O=C1Nc2ccccc2C1=Nc1ccc(-c2nnc3n2CCCCC3)cc1", "Potency": "inconclusive: 15.8 µM [quencher, side channel, partial curve]"},
      {"smiles": "c1coc(-c2ccnc3nc(-n4cccc4)nn23)c1", "Potency": "inconclusive: 20 µM [quencher, side channel, single point]"},
      {"smiles": "CCCS(=O)(=O)c1ncc(Cl)c(C(=O)Nc2ccc(S(=O)(=O)Nc3ncccn3)cc2)n1", "Potency": "inconclusive: 8.91 µM [quencher, side channel, partial curve]"},
      {"smiles": "CCOCc1nnc(NC(=O)c2c(-c3ccccc3)noc2C)s1", "Potency": "inactive"},
      {"smiles": "O=c1ccc2c(o1)/C(=C/C=C(Cl)Cl)CCC2", "Potency": "inconclusive: 22.4 µM [quencher, side channel, partial curve]"},
      {"smiles": "Cc1ccc(S(=O)(=O)/N=C2\\C(=O)c3ccccc3C([O-])=C2n2cc[n+](CCC(C)C)c2)cc1", "Potency": "inconclusive: 3.16 µM [quencher, side channel, full curve]"},
      {"smiles": "Cc1ccc(N2C(=O)[C@@H]3[C@H](C2=O)C2c4ccccc4C=CN2[C@@H]3C(=O)c2ccco2)cc1", "note": "(stereo not given in full)", "Potency": "inconclusive: 20 µM [quencher, side channel, single point]"},
      {"smiles": "O=C1CCCC(=O)N1c1ccc(N2CCOCC2)c([N+](=O)[O-])c1", "Potency": "inconclusive: 15.8 µM [quencher, side channel, partial curve]"},
      {"smiles": "N=c1c(S(=O)(=O)c2ccccc2)cc2c(=O)n3ccccc3nc2n1Cc1ccco1", "Potency": "inconclusive: 12.6 µM [quencher, partial curve]"},
      {"smiles": "O=[N+]([O-])c1ccc(/C=N/Nc2ccnc3cc(Cl)ccc23)o1", "Potency": "inconclusive: 12.6 µM [quencher, side channel, partial curve]"},
      {"smiles": "CCOC(=O)c1oc2nc(C)c3c(c2c1N)CC(C)(C)OC3", "Potency": "inconclusive: 20 µM [quencher, single point]"},
      {"smiles": "O=C(O)C1C2CCC(C2)C1C(=O)N1CCCC1", "note": "(stereo not given)", "Potency": "inactive"},
      {"smiles": "O=C(O)c1cc([N+](=O)[O-])c(NCCC2=CCCCC2)c([N+](=O)[O-])c1", "Potency": "inconclusive: 28.2 µM [quencher, side channel, partial curve]"},
      {"smiles": "COc1cc(C(=S)N2CCOCC2)cc(OC)c1OC(=O)c1cc([N+](=O)[O-])c(C)c([N+](=O)[O-])c1", "Potency": "inconclusive: 20 µM [quencher, side channel, partial curve]"},
      {"smiles": "CC1(C)CCCN(C(=O)c2coc(=O)c(Br)c2)C1", "Potency": "inactive"},
      {"smiles": "Cc1cc(C)cc(-n2c(O)c(C=NC3CCS(=O)(=O)C3)c3ccccc3c2=O)c1", "note": "(stereo not given)", "Potency": "inconclusive: 14.1 µM [quencher, side channel, single point]"},
      {"smiles": "COc1cc(/C=N/NC(=O)c2ccncc2)ccc1Oc1ccc([N+](=O)[O-])cn1", "Potency": "inconclusive: 14.1 µM [quencher, side channel, partial curve]"},
      {"smiles": "CC(=O)N(C)c1ccc(OCC(O)Cn2c3ccc(Cl)cc3c3cc(Cl)ccc32)cc1", "note": "(stereo not given)", "Potency": "inactive"},
      {"smiles": "O=C(C1=NN[C@@H]2C(=O)N(c3ccccc3C(F)(F)F)C(=O)[C@H]12)c1ccc2ccccc2n1", "Potency": "inconclusive: 25.1 µM [quencher, side channel, single point]"},
      {"smiles": "Cc1ccc(-c2c3c(=O)n(C)c(=O)n(C)c3cn2-c2ccccc2O)cc1", "Potency": "inconclusive: 25.1 µM [quencher, side channel, partial curve, poor fit]"},
      {"smiles": "NNC(=O)c1nn(-c2ccc(Cl)cc2)ccc1=O", "Potency": "inconclusive: 17.8 µM [quencher, side channel, partial curve]"},
      {"smiles": "CCN(CC)CCNC(=O)C1CCCCN1S(=O)(=O)c1cccc([N+](=O)[O-])c1", "note": "(stereo not given)", "Potency": "inconclusive: 10 µM [quencher, side channel, partial curve]"},
      {"smiles": "O=C(N/N=C/c1ccc[nH]1)c1cccc([N+](=O)[O-])c1", "Potency": "inconclusive: 39.8 µM [activator, single point]"},
      {"smiles": "N#Cc1cccc(NC(=O)CSc2ccc3c4c(cccc24)C(=O)c2ccccc2-3)c1", "Potency": "inconclusive: 17.8 µM [quencher, side channel, partial curve]"},
      {"smiles": "C=CCn1c(=N)c(C(=O)NCCCOC)cc2c(=O)n3cccc(C)c3nc21", "Potency": "inconclusive: 15.8 µM [quencher, side channel, partial curve]"},
      {"smiles": "COc1ccc(NC2CC(=O)N(c3cc([N+](=O)[O-])ccc3C)C2=O)cc1", "note": "(stereo not given)", "Potency": "inconclusive: 17.8 µM [quencher, partial curve]"},
      {"smiles": "CSc1ccccc1NC(=O)C1=CC(c2ccc(C)cc2)=NS(=O)(=O)N1C", "Potency": "inconclusive: 15.8 µM [quencher, side channel, partial curve]"},
      {"smiles": "COc1ccc(C(=O)NNC(=O)c2ccccc2[N+](=O)[O-])cc1Br", "Potency": "inconclusive: 22.4 µM [quencher, side channel, single point]"},
      {"smiles": "COc1cccc(C(=O)/C=C/Nc2cc(C)ccc2O)c1", "Potency": "inconclusive: 31.6 µM [quencher, side channel, single point]"},
      {"smiles": "NC(=O)c1ccc(N2CCN(S(=O)(=O)c3ccccc3)CC2)c([N+](=O)[O-])c1", "Potency": "inconclusive: 8.91 µM [quencher, side channel, full curve]"},
      {"smiles": "Cc1cccc(CN2CCN(Cc3ccc(-n4cccn4)cc3)CC2CCO)n1", "note": "(stereo not given)", "Potency": "inconclusive: 39.8 µM [inhibitor, partial curve]"},
      {"smiles": "N#Cc1c(NC(=O)c2cnccn2)sc2c1CCCC2", "Potency": "inconclusive: 31.6 µM [quencher, side channel, partial curve, poor fit]"},
      {"smiles": "CCOC(=O)C(CC)Sc1nnc2c3cc(C)ccc3n(C)c2n1", "note": "(stereo not given)", "Potency": "inconclusive: 20 µM [quencher, single point]"},
      {"smiles": "CC(C)(C)n1[nH]c2c3c(ccc2c1=O)C(=O)c1ccccc1C3=O", "Potency": "inconclusive: 3.16 µM [quencher, side channel, full curve]"},
      {"smiles": "Cc1ccc(NC(=O)C(OC(=O)c2cnc(C)cn2)c2ccccc2)c([N+](=O)[O-])c1", "note": "(stereo not given)", "Potency": "inconclusive: 28.2 µM [quencher, single point]"},
      {"smiles": "CCOC(=O)c1c(-c2ccccc2)csc1NC(=O)/C(C#N)=C/c1ccc(O)c(OC)c1", "Potency": "inactive"},
      {"smiles": "CN(C)/C=C/C(=O)c1ccc(S(=O)(=O)c2ccccc2)cc1", "Potency": "inconclusive: 28.2 µM [quencher, side channel, single point]"},
      {"smiles": "COC(=O)c1ccc(C(=O)OC)c(NC(=O)CN(c2ccc3c(c2)OCO3)S(C)(=O)=O)c1", "Potency": "inactive"},
      {"smiles": "c1ccc2[nH]c(-c3ccnc4ccccc34)nc2c1", "Potency": "inconclusive: 25.1 µM [quencher, side channel, single point] and inconclusive: 17.8 µM [quencher, side channel, partial curve]"},
      {"smiles": "COc1ccc2oc(=O)c(C(=O)NCc3ccc(F)cc3)cc2c1", "Potency": "inconclusive: 10 µM [quencher, side channel, partial curve]"},
      {"smiles": "O=C(Nc1ccc2nn(-c3ccccc3)nc2c1)c1cccnc1", "Potency": "inconclusive: 15.8 µM [quencher, side channel, partial curve]"},
      {"smiles": "CCOC(=O)N1CCN(c2cc(C)c([N+](=O)[O-])cc2F)CC1", "Potency": "inconclusive: 25.1 µM [quencher, side channel, single point]"},
      {"smiles": "Cc1cccn2c(=O)c3cc(C(=O)NC(C)c4ccccc4)c(=N)n(CCCn4ccnc4)c3nc12", "note": "(stereo not given)", "Potency": "inconclusive: 22.4 µM [quencher, side channel, partial curve]"},
      {"smiles": "COc1ccc(NC(=O)CCNS(=O)(=O)c2cccc3nonc23)cc1", "Potency": "inconclusive: 15.8 µM [quencher, side channel, partial curve]"}
    ]}
  ]
}
